The other results are listed elsewhere or left out.
Assays:
HSkMC = human skeletal muscle cells; experiment: cytotoxicity call (relative viability < 0.9); details: 10 µM
HepG2 = experiment: cytotoxicity call (relative viability < 0.9); details: 10 µM
S. aureus RN4220 = experiment: growth inhibition call (relative growth <= 0.2); details: 50 µM

| SMILES | cytotoxicity call (HSkMC) | cytotoxicity call (HepG2) | growth inhibition call (S. aureus RN4220) |
| --- | --- | --- | --- |
| Cc1ccc(S(=O)(=O)N(C)C[C@H]2Oc3ccc(NC(=O)CCN4CCOCC4)cc3C(=O)N([C@H](C)CO)C[C@@H]2C)cc1 | inactive | inactive | inactive |
| C[C@H]1CN([C@@H](C)CO)C(=O)Cc2cc(NS(C)(=O)=O)ccc2O[C@@H]1CN(C)Cc1ccc2c(c1)OCO2 | inactive | inactive | inactive |
| C[C@H](CO)N1C[C@H](C)[C@@H](CN(C)Cc2ccc3c(c2)OCO3)Oc2ccc(NC(=O)Nc3cccc4ccccc34)cc2C1=O | inactive | inactive | inactive |
| O=c1nc(Nc2ccccc2)cn[nH]1 | inactive | inactive | inactive |
| C[C@H](CO)N1C[C@H](C)[C@@H](CN(C)S(=O)(=O)c2ccc(Oc3ccccc3)cc2)OCc2cn(nn2)CCCC1=O | inactive | inactive | inactive |
| COc1ccc(S(=O)(=O)N(C)C[C@@H]2Oc3c(NC(=O)Nc4cccc5ccccc45)cccc3C(=O)N([C@@H](C)CO)C[C@H]2C)c(OC)c1 | active | active | inactive |
| O=C(C[C@@H]1CC[C@H](NS(=O)(=O)c2ccc(F)cc2)[C@H](CO)O1)N1CCC(Cc2ccccc2)CC1 | inactive | inactive | inactive |
| C[C@H](CO)N1C[C@H](C)[C@H](CN(C)Cc2ccc(-c3ccccc3)cc2)Oc2c(NS(=O)(=O)c3ccc(Cl)cc3)cccc2C1=O | inactive | inactive | inactive |
| C[C@H](CO)N1C[C@H](C)[C@@H](CN(C)Cc2ccc(C(F)(F)F)cc2)Oc2c(NC(=O)Nc3ccccc3)cccc2C1=O | inactive | inactive | inactive |
| C[C@@H]1CCCCO[C@@H](CN(C)S(=O)(=O)c2ccc(Cl)cc2)[C@@H](C)CN([C@@H](C)CO)C(=O)c2cc(NC(=O)Nc3ccc(F)cc3)ccc2O1 | inactive | inactive | inactive |
| C[C@H]1CCCCO[C@@H](CN(C)Cc2ccc(C(=O)O)cc2)[C@@H](C)CN([C@@H](C)CO)C(=O)c2cc(NC(=O)C3CCCCC3)ccc2O1 | inactive | inactive | inactive |
| CN(C)CCCNC(=O)C[C@H]1CC[C@H]2[C@@H](COC[C@H](O)CN2C(=O)Nc2cc(Cl)cc(Cl)c2)O1 | inactive | inactive | inactive |
| C[C@H](CO)N1C[C@H](C)[C@@H](CN(C)S(C)(=O)=O)Oc2ncc(C#Cc3cccnc3)cc2C1=O | inactive | inactive | inactive |
| CCCCCOc1ccc([C@H]2C(C(=O)c3ccc4c(c3)OCCO4)=C(O)C(=O)N2Cc2ccco2)cc1 | inactive | inactive | inactive |
| C[C@@H]1CN([C@@H](C)CO)C(=O)c2cc(N(C)C)ccc2O[C@@H](C)CCCCO[C@@H]1CN(C)CC1CCCCC1 | inactive | inactive | inactive |
| C[C@@H]1CN([C@H](C)CO)C(=O)c2cccc(NC(=O)CCCCCC(=O)Nc3ccccc3N)c2O[C@H]1CN(C)Cc1ccc(Cl)c(Cl)c1 | inactive | inactive | inactive |
| C[C@H]1CN([C@@H](C)CO)C(=O)c2cccc(NC(=O)c3nc4ccccc4s3)c2O[C@H]1CN(C)CC1CCCCC1 | inactive | inactive | inactive |
| O=C1/C(=C/c2cn(-c3ccccc3)nc2-c2ccc(OCc3ccccc3)cc2)SC(=S)N1CCS(=O)(=O)O | inactive | inactive | inactive |
| C[C@H](CO)N1C[C@H](C)[C@H](CN(C)C(=O)c2ccc3c(c2)OCO3)Oc2ncc(C#CCN(C)C)cc2C1=O | inactive | inactive | inactive |

| SMILES | cytotoxicity call (HSkMC) | cytotoxicity call (HepG2) | growth inhibition call (S. aureus RN4220) |
| --- | --- | --- | --- |
| O=C(C[C@@H]1C[C@H]2c3cc(NC(=O)c4ccc5c(c4)OCO5)ccc3O[C@H]2[C@@H](CO)O1)NCc1cccnc1 | inactive | inactive | inactive |
| CC(=O)/C(C)=N/O | inactive | inactive | inactive |
| Cc1noc(C)c1NC(=O)N(C)C[C@H]1Oc2ccc(NC(=O)C3CC3)cc2C(=O)N([C@@H](C)CO)C[C@@H]1C | inactive | inactive | inactive |
| ON/C=N\c1nonc1-c1cccnc1 | inactive | inactive | inactive |
| CN(C)C/C=C/C(=O)Nc1ccc(C(=O)Nc2cccc(Nc3ncc(Cl)c(-c4c[nH]c5ccccc45)n3)c2)cc1 | active | active | inactive |
| COc1cc2nccc(Oc3ccc(NC(=O)C4(C(=O)Nc5ccc(F)cc5)CC4)cc3)c2cc1OC | active | inactive | inactive |
| Cc1noc(C)c1NC(=O)Nc1ccc2c(c1)C(=O)N([C@@H](C)CO)C[C@@H](C)[C@H](CN(C)S(=O)(=O)c1ccc(F)cc1)OCCCC[C@@H](C)O2 | inactive | inactive | inactive |
| CC(=O)NCC1CN(c2ccc(N3CCOCC3)c(F)c2)C(=O)O1 (stereo not drawn) | inactive | inactive | active |
| Cc1noc(C)c1NC(=O)N(C)C[C@@H]1Oc2ccc(NC(=O)Nc3ccc(C(F)(F)F)cc3)cc2C(=O)N([C@@H](C)CO)C[C@H]1C | inactive | inactive | inactive |
| C[C@@H]1CCCCO[C@@H](CN(C)S(=O)(=O)c2ccc(F)cc2)[C@H](C)CN([C@H](C)CO)C(=O)c2cc(NC(=O)Nc3ccc(C(F)(F)F)cc3)ccc2O1 | inactive | inactive | inactive |
| COc1cccc(C#Cc2ccc3c(c2)O[C@@H](CN(C)S(=O)(=O)c2ccccc2F)[C@H](C)CN([C@@H](C)CO)S3(=O)=O)c1 | inactive | inactive | inactive |
| C[C@@H]1CN([C@@H](C)CO)C(=O)c2cccc(NC(=O)C3CCOCC3)c2O[C@@H]1CN(C)Cc1ccccc1 | inactive | inactive | inactive |
| OCCc1ccc2c(c1)OCO2 | inactive | inactive | inactive |
| C[C@@H]1CCCCO[C@@H](CN(C)S(=O)(=O)c2cn(C)cn2)[C@H](C)CN([C@@H](C)CO)C(=O)c2cc(NS(C)(=O)=O)ccc2O1 | inactive | inactive | inactive |
| Cc1ccc(S(=O)(=O)N[C@H](C)C(=O)O)cc1 | inactive | inactive | inactive |
| COc1ccc(NC(=O)N(C)C[C@@H]2OCc3cn(nn3)CCCC(=O)N([C@H](C)CO)C[C@@H]2C)c(OC)c1 | inactive | inactive | inactive |
| C[C@@H]1CN([C@H](C)CO)C(=O)c2cc(NC(=O)Nc3ccc(C(F)(F)F)cc3)ccc2O[C@@H]1CN(C)C(=O)Nc1ccccc1 | inactive | inactive | inactive |
| CCCN(C)C[C@H]1OCCCC[C@@H](C)Oc2ccc(NC(=O)NC3CCCCC3)cc2C(=O)N([C@@H](C)CO)C[C@H]1C | inactive | inactive | inactive |
| COc1ccc(NC(=O)N(C)C[C@H]2OCCCC[C@@H](C)Oc3ccc(NC(=O)NC4CCCCC4)cc3C(=O)N([C@@H](C)CO)C[C@H]2C)cc1 | inactive | inactive | inactive |

| SMILES | cytotoxicity call (HSkMC) | cytotoxicity call (HepG2) | growth inhibition call (S. aureus RN4220) |
| --- | --- | --- | --- |
| C[C@H]1CN([C@@H](C)CO)C(=O)c2cccc(NS(C)(=O)=O)c2O[C@H]1CN(C)Cc1ccc2c(c1)OCO2 | inactive | inactive | inactive |
| Cc1cccn2c(=O)c(-c3nnn[n-]3)cnc12.[K+] | inactive | inactive | inactive |
| C[C@@H]1CN([C@@H](C)CO)C(=O)c2cc(NS(=O)(=O)c3ccccc3)ccc2O[C@@H](C)CCCCO[C@@H]1CN(C)Cc1ccc2c(c1)OCO2 | inactive | inactive | inactive |
| CC(C)CCN1CCc2nnc(CO)n2CC1 | inactive | inactive | inactive |
| C[C@@H]1CN([C@H](C)CO)C(=O)c2cc(NS(=O)(=O)c3ccccc3)ccc2O[C@H]1CN(C)Cc1ccc(Oc2ccccc2)cc1 | inactive | inactive | inactive |
| CCS(=O)(=O)C1CNC1 | inactive | inactive | inactive |
| CC(C)(C)[S@](=O)N1Cc2cc(C(=O)N[C@H]3CCN(Cc4ccccc4)C3)nc(-c3cccc(-c4ccncc4)c3)c2[C@@H]1CCO | inactive | inactive | inactive |
| Cc1ccc(S(=O)(=O)N(C)C[C@H]2Oc3ccc(NC(=O)C4CC4)cc3CC(=O)N([C@@H](C)CO)C[C@H]2C)cc1 | inactive | inactive | inactive |
| CO[C@H]1CN(C)C(=O)c2ccc(NC(=O)CC(F)(F)F)cc2OC[C@H](C)N(C(=O)C2CCOCC2)C[C@H]1C | inactive | inactive | inactive |
| C[C@@H]1CCCCO[C@@H](CN(C)C(=O)Nc2ccc(C(F)(F)F)cc2)[C@H](C)CN([C@@H](C)CO)C(=O)c2cc(NC(=O)C3CCCCC3)ccc2O1 | inactive | inactive | inactive |
| COc1ccc(NC(=O)Nc2ccc3c(c2)CC(=O)N([C@H](C)CO)C[C@@H](C)[C@H](CN(C)Cc2ccc(-c4ccccc4)cc2)O3)cc1 | inactive | inactive | inactive |
| C[n+]1cc2c3c(ccc2c2ccc4cc5c(cc4c21)OCO5)OCO3.[Cl-] | active | active | inactive |
| Cc1ccc(S(=O)(=O)N(C)C[C@@H]2Oc3ccc(NC(=O)c4ccncc4)cc3C(=O)N([C@@H](C)CO)C[C@@H]2C)cc1 | inactive | inactive | inactive |
| C[C@@H]1CN([C@H](C)CO)S(=O)(=O)c2ccc(C#CCN(C)C)cc2O[C@@H]1CN(C)Cc1ccc2c(c1)OCO2 | inactive | inactive | inactive |
| C[C@@H]1CCCCO[C@@H](CN(C)C(=O)Nc2ccccc2)[C@@H](C)CN([C@H](C)CO)C(=O)c2cc(NC(=O)C3CCCCC3)ccc2O1 | inactive | inactive | inactive |
| C[C@H]1CCCCO[C@H](CN(C)C(=O)Nc2ccccc2)[C@@H](C)CN([C@@H](C)CO)C(=O)c2cc(NC(=O)c3ccccc3)ccc2O1 | inactive | inactive | inactive |
| C[C@@H]1CN([C@H](C)CO)C(=O)Cc2cc(NC(=O)CCC(F)(F)F)ccc2O[C@@H]1CN(C)C(=O)Nc1ccc(C(F)(F)F)cc1 | inactive | inactive | inactive |
| C[C@@H]1CN([C@H](C)CO)C(=O)c2cc(NC(=O)Nc3ccccc3)ccc2O[C@@H](C)CCCCO[C@@H]1CN(C)S(=O)(=O)c1ccccc1 | inactive | inactive | inactive |

Source: the antibiotic and cytotoxicity screens of Wong et al. (2023)
